PubChem BioAssay AID463173 (ICCB-Longwood Screening Facility, Harvard Medical School, 2010)
The whole screen tested about 52,000 compounds, of which about 4,300 (8.3%) were called active. Cut-off read from the data, not from the text of the source: active = survival mostly below about 52% (no sharp cut-off); inactive = mostly above about 56%. The list shows a part of the results.

Test system: DeltatarO mutant
Experiment: growth inhibition of S. aureus wild type versus tarO mutant, primary screen, teichoic acid synthesis inhibitors, RN4220, OD600 (AID 463173)
Conditions: OD600, 18 h, stronger effect = lower value, screened at 18.75 µg/mL (by protocol)

Compound | survival
CCC1Oc2ccc(C)cc2N(CC(=O)N(Cc2ccc3c(c2)OCO3)CC2CCCO2)C1=O (stereo not given) | inactive: 96%
COc1cc(C(=O)Nc2ccc(NC(=O)c3ccc(C(C)(C)C)cc3)cc2)cc(OC)c1OC | inactive: 132%
O=C(COCc1cc(-c2cccs2)on1)N1CCN(c2ccccc2)CC1 | inactive: 72%
CCOc1ccc(CNC(=O)C2CCN(c3nnc(-n4c(C)ccc4C)s3)CC2)cc1 | inactive: 70%
Cc1ccc(NC(=O)c2oc3ccccc3c2NC(=O)Cc2ccccc2)cc1 | inactive: 85%
CCOc1ccc(S(=O)(=O)N2CCN(c3cccc(C(F)(F)F)c3)CC2)cc1OCC | inactive: 59%
COc1ccccc1NC(=O)CSC1=Nc2ccccc2C2=NC(Cc3ccccc3)C(=O)N12 (stereo not given) | inactive: 124%
O=C(OCCCN1CCOCC1)c1ccc(O)cc1O | inactive: 92%
CCN(CC)CCNC(=O)C(=O)NCC(c1ccc2c(c1)OCO2)N1CCOCC1 (stereo not given) | inactive: 115%
O=C(CSc1cn(CC(=O)N2CCCCC2)c2ccccc12)NCc1ccccc1 | inactive: 87%
CCOc1ccc(-c2nnc(SCC(=O)NCc3ccccc3Cl)o2)cc1 | inactive: 81%
CCOC(=O)C1CC1c1ccccc1 (stereo not given) | inactive: 81%
O=C(NCc1ccccc1)C(=O)NCC(c1ccco1)S(=O)(=O)c1ccc(Cl)cc1 (stereo not given) | inactive: 89%
CN(C)c1nc(C2CC2)nc2c1nnn2Cc1ccccc1Cl | inactive: 106%
COc1ccccc1-c1nnc(C2CCN(C(=O)c3cccc(C)c3)CC2)o1 | inactive: 88%
COc1cccc(Cn2c(=O)n(-c3cccc(Cl)c3)c(=O)c3c4c(sc32)CN(C(C)=O)CC4)c1 | inactive: 59%
C=CCC(CC=C)(CNC(=O)C(=O)Nc1ccc(C)cc1)c1ccccc1 | inactive: 77%
CCOc1cc(OCC)cc(C(=O)Nc2cccc(-c3nc4ccccc4[nH]3)c2)c1 | active: 36%
CCOc1ccc(NC(=O)CN2CCN(S(=O)(=O)c3ccc(OC)cc3)CC2)cc1 | inactive: 81%
CC(C)(O)C1Cc2cc3ccc(=O)oc3cc2O1 (stereo not given) | inactive: 80%
CCc1nc2c(cnn2-c2ccc(C)cc2)c(=O)n1Cc1ccccc1 | inactive: 51%
COc1ccc(Cl)cc1C(=O)NCc1ccco1 | inactive: 81%
Cc1cc(C)c(S(=O)(=O)NCC(c2ccco2)N2CCOCC2)c(C)c1 (stereo not given) | inactive: 89%

Compound | survival
CCOC(=O)N1CCc2c(sc3c2c(=O)n(Cc2ccccc2)c(=O)n3Cc2cccc(C)c2)C1 | inactive: 83%
Cc1ccc(-c2onc(C)c2C)cc1S(=O)(=O)NCc1ccc(N(C)C)cc1 | active: -2%
CCc1ccc(NC(=O)Cn2c(=O)n(CCCCC(=O)NCc3ccccc3Cl)c(=O)c3ccccc32)cc1 | inactive: 90%
COc1cc2nc(NC(=O)c3ccccc3)[nH]c(=O)c2cc1OC | inactive: 90%
Cc1cc(C)cc(-n2cnc3cc(C(=O)NC4CCCCCC4)ccc32)c1 | inactive: 95%
Cc1ccc(CCNC(=O)c2ccc3[nH]c(C)c(C)c3c2)cc1 | inactive: 116%
COc1ccc(CCNC(=O)c2cc3n(n2)CCCN(Cc2ccc(C)cc2)C3=O)cc1OC | inactive: 83%
Cc1c2cnn(CC(=O)N3CCN(c4ccccc4)CC3)c(=O)c2c(C)n1Cc1ccccc1Cl | inactive: 78%
CCCCN(C)CCCNC(=O)C1CCN(S(=O)(=O)CC)CC1 | inactive: 108%
CSc1ncc(Cl)c(C(=O)Nc2ccc(S(=O)(=O)Nc3nccc(C)n3)cc2)n1 | inactive: 81%
CC(=O)c1ccc(NC(=O)CCc2c(C)nc3c(c2C)c(=O)n(C)c(=O)n3C)cc1 | inactive: 101%
CC(=O)C1=C(c2ccccc2)N(C(C)=O)n2c(nnc2C2CCCCC2)S1 | inactive: 134%
CCCCN(C)CCCNC(=O)CN1N=C(c2ccc(OC)cc2)CCC1=O | inactive: 67%
COc1ccc(-n2nc3cc(C)c(NC(=O)c4ccc(-c5ccc(Br)cc5)o4)cc3n2)cc1 | active: 37%
COc1cc(OC)cc(C(=O)Nc2cc3c(cc2N2CCOCC2)n(C)c(=O)n3C)c1 | inactive: 83%
Cc1cc(C)n(CCc2nc3c4ccccc4nc(N4CCN(c5cccc(C)c5C)CC4)n3n2)n1 | inactive: 86%
CC(=O)c1cccc(-n2c(=O)c3c4c(sc3n(Cc3cccc(C)c3)c2=O)CN(C(C)=O)CC4)c1 | inactive: 89%
Cc1cccc(NC(=O)CN2C(=O)C(c3ccccc3)=NC23CCC(C)CC3)c1 (stereo not given) | inactive: 77%
O=C(NCc1ccccc1F)c1sc2ncccc2c1-n1cccc1 | inactive: 83%
CCn1cc2nc(SCC(=O)Nc3ccc(C)cc3)n(Cc3ccc(C)cc3)c(=O)c2n1 | inactive: 69%
CCN(CC)c1ccc(NC(=O)CN2CCN(c3ccccc3F)CC2)cc1 | inactive: 75%
COC(=O)CN1C(=O)C(C)(C)c2cc(S(=O)(=O)Nc3ccc(Br)cc3F)ccc21 | inactive: 90%
Cc1[nH]c2ccc(Br)cc2c1CCNC(=O)c1cc2ccccc2oc1=O | active: 32%

Compound | survival
CCOc1ccc(C2=NC(c3cccs3)=Nc3ccc(CC)cc3N2)cc1OCC | inactive: 77%
O=S(=O)(NCCS(=O)(=O)N1CCN(c2cccc(Cl)c2)CC1)c1ccc(F)cc1 | inactive: 83%
O=C(CSCc1ccccc1)Nc1nccs1 | inactive: 77%
COc1ccccc1NC(=O)C1=C(C)Nc2nc(SCc3ccccc3)nn2C1c1cccc(O)c1 (stereo not given) | inactive: 49%
COCCn1c(CNC(=O)c2cccc(C)c2)nc2cccnc21 | inactive: 95%
COCCNC(=O)C1CCN(Cc2cc3ccccc3n2Cc2ccc(C)cc2)CC1 | inactive: 99%
COc1cc(NC(=O)C2CCN(S(=O)(=O)Cc3ccccc3)CC2)c(OC)cc1Cl | inactive: 74%
CCC(C)n1c(=O)c2sccc2n2c(CCCC(=O)NCc3ccccc3Cl)nnc12 (stereo not given) | inactive: 95%
Cc1ccc(C(=O)c2sc(Nc3ccccc3)c(S(=O)(=O)c3ccccc3)c2N)c(C)c1 | inactive: 79%
Cc1cccc(N(C)S(=O)(=O)c2nnc(NC(=O)c3cccs3)s2)c1 | active: 26%
Cc1cc(C)n2nc(CNC(=O)c3c(F)cccc3F)nc2n1 | inactive: 81%
COc1ccc(NC(=O)c2nnn(Cc3nc(-c4cc(OC)c(OC)c(OC)c4)oc3C)c2C)cc1Cl | inactive: 140%
O=C(COc1ccc(F)cc1)Nc1nnc(S(=O)(=O)N2CCCC2)s1 | active: 39%
CCCCNC(=O)C(CC)Sc1nc2ccccc2c(=O)n1Cc1ccco1 (stereo not given) | inactive: 75%
COCCCNC(=O)Cn1c(=O)n(-c2ccc(C)c(C)c2)c(=O)c2c3c(sc21)CCCCC3 | inactive: 80%
CCCCOc1ccc(C(=O)N2CCCCC2CCN2CCOCC2)cc1 (stereo not given) | inactive: 84%
CC1CCC(NC(=O)c2ccc(CS(=O)(=O)c3ccc(Cl)cc3)o2)CC1 (stereo not given) | inactive: 86%
Nn1c(Cc2ccccc2)nc2cc(Cl)ccc2c1=O | inactive: 72%
CCN(CC)S(=O)(=O)c1ccc(C(=O)NCCSc2c(-c3ccc(F)cc3)[nH]c3ccccc23)cc1 | inactive: 69%
Cc1ccc(-c2cn3cccnc3n2)cc1NC(=O)Nc1ccc(F)cc1 | inactive: 152%
Cc1ccc(S(=O)(=O)NNC(=S)NCC2CCCO2)cc1 (stereo not given) | inactive: 69%
COc1ccc2c(c1)c(=O)c(S(=O)(=O)c1ccc(F)cc1)cn2Cc1ccccc1Cl | inactive: 68%
CC(C)(C)OC(=O)N1CCC(c2c(C(=O)N3CCN(c4ccccn4)CC3)cnn2-c2ccc(F)cc2)CC1 | inactive: 88%

Compound | survival
O=C(Cn1ncc2c1-c1ccccc1OC2)N1CCN(c2ccccc2)CC1 | inactive: 68%
COCCNC(=O)CN1C(=O)c2cccnc2Sc2ccccc21 | inactive: 91%
COc1cccc2c(C)cc3nnc(SCC(=O)Nc4ccc(C)cc4)n3c12 | inactive: 53%
O=C(c1ccc2c(c1)OCO2)c1cn(Cc2ccc(Cl)cc2)c2ccc(F)cc2c1=O | active: 55%
O=C(Cn1cc(SCc2c(F)cccc2Cl)c2ccccc21)N1CCCCC1 | inactive: 61%
CCOc1nc(Nc2ccccc2)nc(OCC)n1 | inactive: 115%
Cn1c(=O)n(Cc2ccccc2)c(=O)c2c1nc1n2CCN1c1ccccc1 | inactive: 81%
CCN(CC)CCNC(=O)CN1N=C(c2ccc(OC)cc2)CCC1=O | inactive: 68%
Cc1cccn2cc(-c3cccc(NC(=O)C(C)C)c3)nc12 | inactive: 59%
CC(=O)c1ccc(NC(=O)CSc2nc(-c3ccc(C)cc3)nc3c2c(=O)n(C)c(=O)n3C)cc1 | inactive: 101%
CCn1c(=O)cc(OCC(=O)N2CCN(c3ccc(C)cc3)C(C)C2)c2ccccc21 (stereo not given) | inactive: 46%
CCC(=O)Nc1ccc2nc(SCCOc3ccc(C)cc3OC)sc2c1 | inactive: 67%
COc1ccc(CNC(=O)c2cnc(N(C)C)nc2)cc1 | inactive: 73%
CCCOc1cccc(C(=O)N(Cc2sccc2C)C2CCS(=O)(=O)C2)c1 (stereo not given) | inactive: 110%
CC(C)OCCCNC(=O)CN1C(=O)c2cccnc2Sc2ccccc21 | inactive: 76%
CCOc1ccc(C(=O)N2CCc3cc(OC)c(OC)cc3C2COc2ccc3c(C)cc(=O)oc3c2)cc1OCC (stereo not given) | inactive: 57%
O=C(N1CCC(n2cnc3cccnc32)CC1)N1c2ccccc2Sc2ccccc21 | inactive: 91%
CC(=O)c1ccc(NC(=O)C2CCN(S(=O)(=O)c3c(C)noc3/C=C/c3ccc(C)cc3)CC2)cc1 | inactive: 69%
COc1ccc(CNC(=O)CN2C(=O)COc3ccccc32)c(OC)c1 | inactive: 89%
Oc1ccccc1-c1nc2cnccn2c1Nc1ccc(Cl)cc1 | active: 15%
CC(=O)N(C)c1nc(-c2ccccc2)cs1 | inactive: 80%
